Consider 68 molecules from PubChem BioAssay AID1362 (SRMLSC, 2008).

Each structure is given as a SMILES string. Some of the results follow. Shown are side measurements of this screen, not its main read-out; they come without a call. Compounds called inactive in the main read-out are mostly missing here.

As a reminder, the inhibition is the relative decrease from the control value, in per cent.

A short description of this assay: growth inhibition of WT strain, primary screen, mitochondrial fusion inhibitor project, WT and mutant strains, chemical genetic (AID 1362). Also: tested in S. cerevisiae. Conditions: mitochondrial fusion phenotypic screen, at 10 µM.
As to `O=S(=O)(NCC(Nc1ccc(Cl)cc1)c1ccccc1)c1ccccc1` (stereo not drawn), the inhibition came out at 14.1%. With `COc1cc(SC)ccc1C(=O)NCCOc1ccc(C)c(C)c1`, the inhibition stood at 28.9%. `Cc1ccc(NC(=O)c2ccccc2NS(=O)(=O)c2ccc(Cl)s2)cc1`: the inhibition is 76.4%.

As for `CCCCn1c(N)c(C(=S)NC(=O)CC(C)(C)C)c(=O)n(C)c1=O`, the inhibition was 40%. For `CCc1ccc(-c2cc(C(=O)N3N=C(C(F)F)CC3(O)C(F)F)c3ccccc3n2)cc1` (stereo not drawn), the inhibition was 57.8%. For the molecule `CCOc1ccc(Br)cc1C1C(C(=O)OC)=C(N)Oc2cc(N(C)C)ccc21` (stereo not drawn), the inhibition turned out to be 0.67%.

Consider `CC(C)n1c(CSCc2ccc(Cl)cc2Cl)n[nH]c1=S`, for which the inhibition turned out to be 53.9%. For the molecule `O=C(C1CC1c1ccccc1)N1CCN(c2cccc(Cl)c2)CC1` (stereo not drawn), the inhibition was 56.1%. In the case of `Clc1ccc(CSc2nnc(-c3ccccn3)n2Cc2ccco2)c(Cl)c1`, the inhibition was 30%. For the molecule `CC(C)C(=O)Nc1nnc(SCC(=O)NCc2cccs2)s1`, the inhibition was -8.46%. Then `CCO[C@H]1OC(C(=O)Nc2ccccc2)=C[C@@H](c2ccc(C(F)(F)F)cc2)[C@@H]1CCCO`, with 53.1%.

Consider `Fc1ccc(F)c(C2=NNC(=Nc3ccccc3F)SC2)c1`, for which the inhibition amounted to 27.1%. As for `Cc1ccc(-n2nnnc2C(Cl)(Cl)c2nnnn2-c2ccc(C)cc2)cc1`, the inhibition amounted to 92.2%.

As for `Cc1cccc(C2(c3cccc(C)c3)CC2C(=O)Nc2ccc([N+](=O)[O-])cc2O)c1` (stereo not drawn), the inhibition worked out at 80.6%. Turning to `COc1ccc(C(=O)O/N=C(\N)Cc2ccc(Cl)c(Cl)c2)cc1OC`, the inhibition stood at 56.8%. As for `Cc1nc(N2CCN(c3ccccc3)CC2)c2c3c(sc2n1)CCC3`, the inhibition is 53.3%. Then `Cc1ccc(-c2csc3ncnc(N4CCc5ccccc5C4)c23)cc1`, with -8.89%; and `COc1ccc(NC(=O)c2ccc(Cl)c(S(=O)(=O)N3CCc4ccccc4C3)c2)cn1`, with 44.5%; and `CCc1ccccc1N1C[C@@]23C=C[C@@H](O2)C(C(=O)OCC(C)C)[C@H]3C1=O` (stereo partly drawn), with 15.9%. In the case of `Cc1cc(C(=O)Nn2c(-c3ccc(Br)cc3)nc3ccccc3c2=O)ccc1[N+](=O)[O-]`, the inhibition was found to be 22.2%. Take `CC(=O)Nc1ccc(Sc2ncnc3scc(-c4ccccc4)c23)cc1`: the inhibition is 71.1%. Turning to `O=C(O)C1C2C=CC(C2)C1C(=O)Nc1ccc(C(=O)N2CCCCC2)cc1` (stereo not drawn), the inhibition was -16.9%.

For the molecule `Cc1cccc(N=Nc2ccc(O)c3ncccc23)c1`, the inhibition was 54%. Then `CCC(C)(C)c1ccc(Oc2ccc(N)cc2)cc1`, with 23.2%. The value for `Brc1ccc(CSc2nnc(Cc3c[nH]c4ccccc34)o2)cc1` was 25.2%; that for `O=C(CC12CC3CC(CC(C3)C1)C2)NC(=S)NCc1ccco1` was 32.8%; that for `CCOc1ccccc1NC(=O)NC(=O)N(C)S(=O)(=O)c1ccc(C)cc1` was -7.93%. As to `O=c1c2ccccc2n(Cc2cccc(F)c2)c(=O)n1C1CCCC1`, the inhibition stood at 42.9%.

As to `S=C(NNc1ccc2ccccc2c1)NC1CCCCC1`, the inhibition was determined as 66%. On to `C=CCOc1c(Br)cc(/C=N/Nc2ccc(C(=O)O)cc2)cc1OCC`, for which the inhibition is -23.3%.

With `COc1cc(Nc2nc(-c3ccccc3)c3cc(C)ccc3n2)cc(OC)c1OC`, the inhibition is 7.79%. Consider `CCn1c(C)cs/c1=N\C(=S)Nc1ccccc1C`, for which the inhibition was 59.6%. Take `CCOC(=O)c1cnc(-n2nc(C)cc2C)nc1NCc1ccccc1`: the inhibition worked out at 52.8%. Consider `Cc1ccc(S(=O)(=O)NCc2ccco2)c(C)c1C`, for which the inhibition came to 0.1%. In the case of `CCCc1ccc(Oc2c(-c3ccc(O)c(C)c3O)n[nH]c2C)cc1`, the inhibition worked out at 88.4%. For the molecule `Cc1oc2c(c1C(=O)c1ccc(Cl)cc1)C(=O)C(=O)c1ccccc1-2`, the inhibition came out at 73.8%. For the molecule `O=C1c2ccccc2CCC12N=NCC2c1ccc(Br)cc1` (stereo not drawn), the inhibition came to 41.4%. With `Oc1ccc(Cl)cc1-c1cc(-c2ccccc2)n[nH]1`, the inhibition was found to be 44.1%. `O=S(=O)(Nc1cccc2ncccc12)c1cccs1`: the inhibition worked out at 16.3%. In the case of `CC/C(=C\C1CCCCC1)C(NP(=O)(c1ccccc1)c1ccccc1)c1ccccc1` (stereo not drawn), the inhibition was -0.13%. On to `CN(C)CCCN(C(=O)c1ccc2c(c1)CCCC2)c1nc2ccc(F)cc2s1`, for which the inhibition amounted to 85.3%. For `O=c1c2ccccc2cnn1-c1nc2ccccc2[nH]1`, the inhibition came to 85.1%. In the case of `NCC12CC3CC(C1)CC(c1ccc(Cl)cc1)(C3)C2`, the inhibition is 51.3%.

Turning to `O=C(NCC(c1cccnc1)N1CCOCC1)c1ccco1` (stereo not drawn), the inhibition amounted to 18.2%. For `Fc1ccc(-c2nc(-c3cccs3)[nH]c2-c2ccc(F)cc2)cc1`, the inhibition amounted to 58.6%. Then `CC(C)c1ccccc1NC(=S)NN(Cc1ccccc1)c1ccccc1`, with 25.8%.

With `COC(=O)c1ccc(C2N=C(c3cccs3)CC(c3ccccc3O)N2)cc1` (stereo not drawn), the inhibition came to 32.8%. Regarding `CC(C)C(NS(=O)(=O)c1cccc2nsnc12)C(=O)Nc1nc2ccc(Cl)cc2s1` (stereo not drawn), the inhibition is 45.8%. As for `CC12CCC(O)CC1=CCC1C2CCC2(C)C1CCC21CCC(=O)O1` (stereo not drawn), the inhibition worked out at 17.5%.

Regarding `CCn1c(=O)c([N+](=O)[O-])c(Cl)c2ccccc21`, the inhibition was 50.4%. Then `Cc1nc2ccccc2c2oc(C(=O)Nc3ccc(C(C)C)cc3)cc12`, with 5.14%.

Regarding `CN(C)CCCN(C(=O)CCc1ccccc1)c1nc2ccc(F)cc2s1`, the inhibition is 81.3%.

As to `Cc1c(CN(C)C)c2c(n1Cc1ccccc1)C(=O)c1ccc(Br)cc1-2`, the inhibition is 79%.

In the case of `O=C(CSc1nnc(-c2cnccn2)n1Cc1ccco1)c1ccccc1`, the inhibition is 97.1%. In the case of `CC(=O)N1N=C(c2cccc([N+](=O)[O-])c2)OC1c1cccc(Br)c1` (stereo not drawn), the inhibition was found to be 42.8%.

On to `Cc1nn(-c2ccccc2)c(Cl)c1C(=O)OC(C)C(=O)NC(=O)NC1CCCCC1` (stereo not drawn), for which the inhibition amounted to 44.8%. On to `O=C(c1cnccn1)N1CCc2c([nH]c3ccccc23)C1c1cccc(Cl)c1` (stereo not drawn), for which the inhibition was 36%. Turning to `CC(CNC(=O)COc1ccccc1)OC(=O)Nc1ccc(Cl)c(Cl)c1` (stereo not drawn), the inhibition is 79.2%.

In the case of `COc1cccc(NC(=S)NCCC(c2ccccc2)c2ccccc2)c1`, the inhibition is 60%. Take `Cn1c(=O)cc(OCCCC(=O)N2CCN(c3ccccc3)CC2)c2ccccc21`: the inhibition is -0.45%. Turning to `COCCN(C(=S)Nc1ccc(C)c(C)c1)C(C)c1ccco1` (stereo not drawn), the inhibition was 10.7%. For `CC(=O)Nc1cccc(NC(=O)CSc2nnnn2Cc2ccccc2)c1`, the inhibition is -5.39%. Regarding `Cn1c(=O)c2c(nc(N3CCCCCC3)n2Cc2cccc3ccccc23)n(C)c1=O`, the inhibition was 23.2%.

As for `C=CCn1c(O)c(C2=c3ccccc3=NC2=O)sc1=Nc1ccc(O)cc1`, the inhibition is 59%.

For the molecule `CN1CCN(c2nc(NCCOC34CC5CC(CC(C5)C3)C4)nc(OCC(F)(F)F)n2)CC1`, the inhibition stood at 34.5%.

Regarding `O=C(Nc1ccccc1)OC1CCC2CC1CCC2OC(=O)Nc1ccccc1` (stereo not drawn), the inhibition was 34.6%.

With `CCOc1ccc(NC(=S)NN(C)C(=S)Nc2ccc(OCC)cc2)cc1`, the inhibition was determined as 3.29%. `CC1=C/C(=N\NC(=S)NCCc2ccccc2)CC(C)(C)C1`: the inhibition was 64.6%.
